# The inconclusive results got no clear call from the source; some entries with a clear call stand among them for comparison. Entries that show only a call come without a potency. For part of these data: Potencies beside an inconclusive call are fits to weak or partial responses and may not hold up. The source made the active and inactive calls. Unless noted, the call rests on the fitted dose curve; in most records, active means well fitted curve in the direction sought with a large enough effect; inconclusive means small, poorly fitted or top-dose-only effect, or another doubt; inactive means no such curve, though single readings can be large; an effect the other way counts as inactive or inconclusive.
# Columns and labels:
# [1] = P-glycoprotein substrates identified in KB-8-5-11 adenocarcinoma cell line, qHTS therapeutic library screen (AID 1346987); further: potency means the concentration at half of the fitted maximal effect; nearly all actives have a fitted effect of over 65% in size
# Procedure, shortened: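 KB-8-5-11: colchicine-selected sub-line of KB-3-1 over-expressing P-gp; assay medium lacked colchicine. 72 h drug exposure at 37 degree C, CellTiter-Glo.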
# [2] = test system: Zika virus NS2B-NS3 protease (linked construct); experiment: Primary screen NINDS Rhodamine qHTS for Zika virus inhibitors (AID 1347160); settings: activity change, negative = inhibition: at 57.1 µM (top of the series) unless noted; further: nearly all actives have a fitted effect of over 55% in size
# Procedure, shortened: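 In 10 mM Tris-HCl pH 8.0 containing 0.01% Tween 20, linked NS2B-NS3 protease (25 nM final) is exposed to test compounds for 15 min. Cleavage of 1.5 microM Rhodamine110 substrate is tracked by fluorescence over 15 min.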
# [3] = Primary qHTS for inhibitors of nuclear receptor binding SET domain protein 2 (NSD2) in an isogenic RCH-ACV NSD2 p.E1099K mutant (9B) (AID 1645876); further: potency means the concentration at half of the fitted maximal effect; nearly all actives have a fitted effect of over 70% in size
# [4] = Primary qHTS for inhibitors of nuclear receptor binding SET domain protein 2 (NSD2) in an RCH-ACV wild type WT cells (2C) (AID 1645877); settings: activity change, negative = cell killing: at 44.9 µM (top of the series) unless noted; further: nearly all actives have a fitted effect of over 70% in size; further: potency means the concentration at half of the fitted maximal effect
# [5] = Primary fluorescence-based thiol-reactive (MSTI) qHTS assay for identification of artifact compounds. (AID 1845221); further: potency means the concentration at half of the fitted maximal effect;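 further: thiol-reactive compounds lower the probe fluorescence signal; nearly all actives have a fitted effect of over 65% in size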
# Procedure, shortened: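 First, 4 uM MSTI in 2% DMSO/PBS pH 7.4 was dispensed; next, compounds were added; then plates sat 1 h at room temperature without light. Finally, emission at 598 nm was recorded.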
# HEK293 = experiment: Cytotoxic Profiling of Annotated Libraries Using Quantitative High-Throughput Screening (AID 1296008); settings: Five cell lines viability, CellTiter-Glo ATP luminescence, 48-72 h; max response: active compounds read low; further: nearly all actives have a fitted effect of over 60% in size; further: potency means the concentration at half of the fitted maximal effect
# Procedure, shortened: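 Compounds were pin-transferred onto cells and incubated 48 or 72 hr at 37 degree Celsius, 95% humidity. CellTiter-Glo was added, plates sat 10 min at room temperature, then ATP-coupled luminescence was imaged as the viability read-out.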
# CASKI = experiment: Primary qHTS to identify gynecologic anti-cancer compounds using libraries of approved drugs and bioactive compounds (AID 1345084); settings: Gynecologic cancer cell panel viability, ATPlite luminescence, 48 h; series mostly up to 57.5 µM; further: nearly all actives have a fitted effect of over 55% in size; further: potency means the concentration at half of the fitted maximal effect
# Procedure, shortened: (§1)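 48 h compound exposure at 37 C, 5% CO2; five-point qHTS. ATPlite luminescence readout of cell ATP.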
# SKOV3 = experiment: as above; settings: Gynecologic cancer cell panel viability, ATPlite luminescence, 48 h; series mostly up to 57.5 µM
# Procedure, shortened: as §1
# Es-2 = experiment: as above; settings: Gynecologic cancer cell panel viability, ATPlite luminescence, 48 h; series mostly up to 57.5 µM
# Procedure, shortened: as §1
# HeLa = experiment: as above; settings: Gynecologic cancer cell panel viability, ATPlite luminescence, 48 h; activity change, negative = cytotoxicity: at 57.5 µM (top of the series)
# Procedure, shortened: as §1
# [6] = target: Cytochrome P450 3A4 (Homo sapiens) (UniProt P08684); experiment: Cytochrome P450 family 3 subfamily A member 4 (CYP3A4) small molecule antagonists: luciferase qHTS assay (AID 1645841; active means well fitted curve in the direction sought with a large enough effect in the repeat runs; inconclusive means weak or mixed curves; inactive means no such curve, though single readings can be large; an effect the other way counts as inactive or inconclusive; further: nearly all actives have a fitted effect of over 45% in size)
# UniProt P08684, sequence (P08684 whole entry, looked up): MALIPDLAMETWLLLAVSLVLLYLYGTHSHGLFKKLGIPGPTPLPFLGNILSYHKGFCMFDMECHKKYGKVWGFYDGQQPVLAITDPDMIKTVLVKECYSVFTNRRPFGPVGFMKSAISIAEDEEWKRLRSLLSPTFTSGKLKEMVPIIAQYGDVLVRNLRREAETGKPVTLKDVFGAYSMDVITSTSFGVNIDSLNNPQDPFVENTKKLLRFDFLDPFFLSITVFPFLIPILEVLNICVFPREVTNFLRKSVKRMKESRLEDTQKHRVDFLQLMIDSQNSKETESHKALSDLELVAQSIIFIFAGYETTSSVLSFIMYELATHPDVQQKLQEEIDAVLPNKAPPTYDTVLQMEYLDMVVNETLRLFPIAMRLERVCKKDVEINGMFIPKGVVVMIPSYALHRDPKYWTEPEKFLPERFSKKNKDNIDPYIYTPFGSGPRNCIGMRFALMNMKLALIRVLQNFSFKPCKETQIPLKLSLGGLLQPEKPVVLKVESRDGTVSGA
# Procedure, shortened: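 P450-Glo CYP3A4 enzyme with proluciferin substrate was preincubated with DMSO-dissolved compounds for 10 min at room temperature. NADPH regeneration solution started a 1 h reaction. Detection reagent stopped it, and luminescence was read after 20 min.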
# [7] = target: Cytochrome P450 2C9 (Homo sapiens) (UniProt P11712); experiment: Cytochrome P450 family 2 subfamily C member 9 (CYP2C9) small molecule antagonists: luciferase biochemical (cell-free) qHTS assay (AID 1645842; active means well fitted curve in the direction sought with a large enough effect in the repeat runs; inconclusive means weak or mixed curves; inactive means no such curve, though single readings can be large; an effect the other way counts as inactive or inconclusive; further: potency means the concentration at half of the fitted maximal effect; nearly all actives have a fitted effect of over 55% in size)
# UniProt P11712, sequence (P11712 whole entry, looked up): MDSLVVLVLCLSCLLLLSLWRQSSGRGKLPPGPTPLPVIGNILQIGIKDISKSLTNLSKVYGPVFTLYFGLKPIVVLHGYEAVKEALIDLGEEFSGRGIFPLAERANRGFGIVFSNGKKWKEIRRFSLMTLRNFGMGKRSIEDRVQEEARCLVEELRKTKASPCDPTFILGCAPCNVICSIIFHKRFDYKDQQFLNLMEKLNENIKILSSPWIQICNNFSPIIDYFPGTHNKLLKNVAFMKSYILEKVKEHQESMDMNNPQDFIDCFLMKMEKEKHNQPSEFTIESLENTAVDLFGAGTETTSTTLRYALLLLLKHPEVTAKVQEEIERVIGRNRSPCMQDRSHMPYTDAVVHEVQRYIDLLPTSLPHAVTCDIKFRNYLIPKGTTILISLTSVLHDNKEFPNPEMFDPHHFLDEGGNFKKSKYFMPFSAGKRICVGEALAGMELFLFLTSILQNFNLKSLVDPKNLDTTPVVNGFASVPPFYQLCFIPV
# Procedure, shortened: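 Luminescence, after 20 min with luciferin detection reagent, reflected CYP2C9 turnover during a 1 h NADPH-driven reaction at 37C. Enzyme-substrate mix contained 0.4% bovine serum albumin and was preincubated with compound 10 min at room temperature.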
# [8] = target: Glutathione peroxidase 1 (Homo sapiens) (UniProt P07203); experiment: Primary qHTS Assay for Inhibitors of Recombinant Selenoprotein Glutathione Peroxidase 1 (GPX1) (AID 1845191); settings: activity, negative = inhibition: at 48.8 µM (top of the series); further: nearly all actives have a fitted effect of over 65% in size
# UniProt P07203, sequence (P07203 whole entry, looked up): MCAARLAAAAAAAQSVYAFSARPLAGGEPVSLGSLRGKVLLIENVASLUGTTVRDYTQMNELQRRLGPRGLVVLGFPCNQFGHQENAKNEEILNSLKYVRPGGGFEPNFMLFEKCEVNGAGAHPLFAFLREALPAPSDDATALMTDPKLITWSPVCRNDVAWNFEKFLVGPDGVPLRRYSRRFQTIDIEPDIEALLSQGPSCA
# Procedure, shortened: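 Recombinant GPX1 (10 nM final) was preincubated with compound for 30 min at room temperature, then reacted with 1 mM GSH, 0.5 mM CHP, 0.5 mM NADPH and 100 nM glutathione reductase; NADPH fluorescence (340/450 nm) was read at 0 and 15 min.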
# Tags describe the fitted curve by direction and shape.
smiles,measurement,setting,value
COCCN(C(=O)c1cc(OC)c(OC)c(OC)c1)c1nc(-c2ccccc2)cs1,Potency,[1],"inconclusive: 18.4 µM [inhibitor, single point]"
same,Potency,[2],inactive
same,Potency,[3],"inconclusive: 29 µM [inhibitor, single point]"
same,Potency,[4],"inconclusive: 20.5 µM [inhibitor, partial curve]"
same,Potency,[5],inactive
same,Potency,HEK293,"inconclusive: 29.1 µM [inhibitor, single point]"
same,Potency,CASKI,inactive
same,Potency,SKOV3,"inconclusive: 15.8 µM [cytotoxic, single point]"
CC(C)(O)/C=C/C1=CC(=O)[C@@](C)(O)C[C@H]1O,Potency,[5],"inconclusive: 7.52 µM [inhibitor, partial curve]"
same,max response,HEK293,inactive: -6.16%
same,Potency,Es-2,inactive
same,Potency,HeLa,inactive
Fc1ccc(CN2CCC(Nc3ccc(C(F)(F)F)nn3)CC2)cc1F,Potency,[1],"inconclusive: 14.6 µM [inhibitor, partial curve, poor fit]"
same,Potency,[6],inactive
same,Potency,[7],"inconclusive: 19 µM [inhibitor, partial curve]"
same,Potency,[4],inactive
same,Potency,HEK293,"inconclusive: 14.6 µM [inhibitor, partial curve]"
same,Potency,CASKI,"inconclusive: 1.26 µM [cytotoxic, single point]"
CC1(C)C2CCC(CO[C@@H]3O[C@H](CO[C@@H]4OC[C@](O)(CO)[C@H]4O)[C@@H](O)[C@H](O)[C@H]3O)C1C2 (some centres undefined),Potency,[8],inactive
same,Potency,HEK293,"inconclusive: 2.52 µM [inhibitor, single point]"
same,Potency,CASKI,inactive
same,Potency,Es-2,inactive
CC1=C(C)C(=O)OC(C(C)C2C(O)CC3C4C5OC5C5(O)CC(OC6OC(CO)C(O)C(O)C6O)CC(O)C5(C)C4CCC32C)C1 (centres undefined),outcome,HEK293,inactive
same,Potency,Es-2,inactive

# — PubChem BioAssay (NCATS)
